“And” between values parts separate entries of the source, which are not always exact repeats. Equal values may be shown once. ± gives the standard deviation of the averaged measurements. The full ranking holds about 2,900 compounds; the median of “IRF Lucia reporter activity, fold change vs agonist alone” is about 0.9, and the highest 2% start at about 2.8. Some of the results follow.
What was measured:
RAW-Dual [1] = assay: IRF Lucia reporter activity, fold change vs agonist alone; higher = enhanced IRF activity; conditions: agonist: MPLA (TLR4) […]
Method in brief: (§1)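 Supernatant from RAW-Dual macrophages was read after 20 hours for IRF by QuantiLuc luminescence and for NF-κB by QuantiBlue absorbance at 620 nm. The cells (50,000 cells/well in DMEM, 384-well plates, 37 °C, 5% CO2) had received 50 nL of library stock by pin tool and, 1 h later, a PRR agonist. Reporter activity is expressed relative to agonist-alone wells as fold change, and wells were flagged cytotoxic if IncuCyte confluency was under 70% of agonist controls in both mask sets.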

RAW-Dual [2] = assay: IRF Lucia reporter activity, fold change vs agonist alone; cytotoxicity flag (confluency mask): cytotoxic (confluency <70% of control); higher = enhanced IRF activity
Method in brief: as §1

RAW-Dual [3] = assay: IRF Lucia reporter activity, fold change vs agonist alone; cytotoxicity flag (confluency mask): not cytotoxic; higher = enhanced IRF activity
Method in brief: as §1

[4] = library stock concentration (final ~1000-fold dilution): 10 mM, cytotoxicity flag (confluency mask): cytotoxic (confluency <70% of control)
[5] = agonist: 3'3'-cGAMP (STING) 10 ug/mL
[6] = library stock concentration (final ~1000-fold dilution): 10 mM, cytotoxicity flag (confluency mask): not cytotoxic

Cc1ccc(S(=O)(=O)/C=C/C#N)cc1
IRF Lucia reporter activity (RAW-Dual [1]; [4]): 0.507 ± 0.69

Cc1ccc(S(=O)(=O)/C=C/C#N)cc1 (library stock concentration (final ~1000-fold dilution): 10 mM)
IRF Lucia reporter activity (RAW-Dual [2]; [5]): 0.0131 and 0.0117 | IRF Lucia reporter activity (RAW-Dual [2]; agonist: LPS (TLR4) 0.1 ug/mL): 0.0174 and 0.0105

Cc1cccn2c(=O)c(-c3nnn[nH]3)cnc12 (library stock concentration (final ~1000-fold dilution): 10 mM water)
IRF Lucia reporter activity (RAW-Dual [3]; [5]): 1.1 | IRF Lucia reporter activity (RAW-Dual [3]; agonist: LPS (TLR4) 0.1 ug/mL): 0.916

Cc1cccn2c(=O)c(-c3nnn[nH]3)cnc12
IRF Lucia reporter activity (RAW-Dual [1]; library stock concentration (final ~1000-fold dilution): 10 mM water, cytotoxicity flag (confluency mask): not cytotoxic): 1.29

CCOCCn1c(N2CCCN(C)CC2)nc2ccccc21 (library stock concentration (final ~1000-fold dilution): 10 mM)
IRF Lucia reporter activity (RAW-Dual [3]; [5]): 1.05 | IRF Lucia reporter activity (RAW-Dual [3]; agonist: LPS (TLR4) 0.1 ug/mL): 0.888

CCOCCn1c(N2CCCN(C)CC2)nc2ccccc21
IRF Lucia reporter activity (RAW-Dual [1]; [6]): 1.13

CCC(=O)OC1CC(=O)OC(C)C/C=C/C=C/C(O)C(C)CC(CC=O)C(OC2OC(C)C(OC3CC(C)(O)C(OC(=O)CC)C(C)O3)C(N(C)C)C2O)C1OC (stereo not given)
IRF Lucia reporter activity (RAW-Dual [1]; [6]): 1.09

CCC(=O)OC1CC(=O)OC(C)C/C=C/C=C/C(O)C(C)CC(CC=O)C(OC2OC(C)C(OC3CC(C)(O)C(OC(=O)CC)C(C)O3)C(N(C)C)C2O)C1OC (stereo not given) (library stock concentration (final ~1000-fold dilution): 10 mM)
IRF Lucia reporter activity (RAW-Dual [3]; [5]): 1.05 | IRF Lucia reporter activity (RAW-Dual [3]; agonist: LPS (TLR4) 0.1 ug/mL): 0.944

CCCC(=O)Nc1cccc(NC(=O)c2ccccc2Br)c1
IRF Lucia reporter activity (RAW-Dual [1]; [6]): 0.996

CCCC(=O)Nc1cccc(NC(=O)c2ccccc2Br)c1 (library stock concentration (final ~1000-fold dilution): 10 mM)
IRF Lucia reporter activity (RAW-Dual [3]; [5]): 1.01 | IRF Lucia reporter activity (RAW-Dual [3]; agonist: LPS (TLR4) 0.1 ug/mL): 0.907

O=C(O)c1ccc(O)c2ncccc12 (library stock concentration (final ~1000-fold dilution): 10 mM)
IRF Lucia reporter activity (RAW-Dual [3]; [5]): 0.875 | IRF Lucia reporter activity (RAW-Dual [3]; agonist: LPS (TLR4) 0.1 ug/mL): 1.09

O=C(O)c1ccc(O)c2ncccc12
IRF Lucia reporter activity (RAW-Dual [1]; [6]): 1.04

COc1cc2ncnc(Nc3ccc(O)c(Br)c3)c2cc1OC
IRF Lucia reporter activity (RAW-Dual [1]; [6]): 0.438

COc1cc2ncnc(Nc3ccc(O)c(Br)c3)c2cc1OC (library stock concentration (final ~1000-fold dilution): 10 mM)
IRF Lucia reporter activity (RAW-Dual [3]; [5]): 0.128 | IRF Lucia reporter activity (RAW-Dual [3]; agonist: LPS (TLR4) 0.1 ug/mL): 0.342

CNC(=O)C(Cc1ccccc1)NC(=O)C(CC(C)C)C(CSc1cccs1)C(=O)NO (stereo not given)
IRF Lucia reporter activity (RAW-Dual [1]; [6]): 1.04

CNC(=O)C(Cc1ccccc1)NC(=O)C(CC(C)C)C(CSc1cccs1)C(=O)NO (stereo not given) (library stock concentration (final ~1000-fold dilution): 10 mM)
IRF Lucia reporter activity (RAW-Dual [3]; [5]): 0.621 | IRF Lucia reporter activity (RAW-Dual [3]; agonist: LPS (TLR4) 0.1 ug/mL): 1.08

C=C1C(=O)OC2C1CC/C(C)=C/CCC1(C)OC21 (stereo not given) (library stock concentration (final ~1000-fold dilution): 10 mM)
IRF Lucia reporter activity (RAW-Dual [3]; [5]): 0.0893 | IRF Lucia reporter activity (RAW-Dual [3]; agonist: LPS (TLR4) 0.1 ug/mL): 0.0169 | IRF Lucia reporter activity (RAW-Dual [2]; [5]): 0.036 | IRF Lucia reporter activity (RAW-Dual [2]; agonist: LPS (TLR4) 0.1 ug/mL): 0.0142

C=C1C(=O)OC2C1CC/C(C)=C/CCC1(C)OC21 (stereo not given)
IRF Lucia reporter activity (RAW-Dual [1]; [4]): 0.0277 | IRF Lucia reporter activity (RAW-Dual [1]; [6]): 0.747
